± gives the standard deviation of the averaged measurements. This is one part of the list.
test system: PfAP2-EXP AP2 domain (GST-tagged); assay: gcPBM binding intensity (ln(normalized median fluorescence intensity)); higher = stronger DNA binding
Outline: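 An Agilent 4 × 180k array carrying primer-extended double-stranded 36-bp intergenic genomic probes and negative controls received GST-tagged P. falciparum DNA-binding domains expressed in E. coli, about 25 μg on average, for 1 h. The binding buffer contained 1× PBS, 1% milk, 0.2 mg/ml BSA, 0.5% salmon testes DNA and 0.03% Triton X-100. Binding intensity is the top Masliner-normalised natural-log median intensity across replicate spots of either probe orientation, read after Alexa488 anti-GST antibody staining and a 488 nm scan.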

Sequence	gcPBM binding intensity (ln)
TTTTAACTTTTATATTGTACGTTGTTTATTTTATTT [XGTACX_site7504]	8.83 ± 0.47
TTATTTACCATCTCTACACACAAAAATTGATGTAGA [CACACA_site2811]	8.3 ± 0.3
TCATAATGAAAACAAGCACACATACATAAAATAAAA [CACACA_site9069]	8.92 ± 0.42
ATATGTATTAAGTGTACACATATAATGTATTTTGTT [CACACA_site4177]	8.69 ± 0.27
TAAATTATATTATGCACACTTAAAAATATATTTAAC [CACACA_site3512]	8.49 ± 0.3
GAATCATCCAAAATTGCATGCAAGGAAGAAGAAAAA [TGCATGCA_site764]	9.975 ± 0.007
TTTTTATATATCACGTGTACATATTTATTTTTACTC [XGTACX_site8049]	8.8 ± 0.35
ATATGTAATAATAAATGTACGAAACATTGAACGATG [XGTACX_site1266]	8.91 ± 0.41
TTATAAATATAATATTGTACAAAATTTTAACATGTC [XGTACX_site5259]	8.59 ± 0.4
CTTATGTGTATAAGTAGTACTAAATTAAAATAATAT [XGTACX_site2681]	8.61 ± 0.36
AAATCACCTTAAGAACGTACAAACAGAAAAAAATTA [XGTACX_site4623]	8.78 ± 0.56
TTTATTATATTTATATGTACTTATATAATATATGCA [XGTACX_site1906]	8.44 ± 0.4
CGTATGAAACATATATGTACTTATAAAAATATAACC [XGTACX_site7539]	8.72 ± 0.38
ATTTTAAATGTTATGCGTACATATTAATCCTACTTA [XGTACX_site1344]	8.73 ± 0.3
TGTTTGAATAACAAAAAAAAAAAAAAAATTAAAAAA [CACACA_negctrl_site1332]	8.05 ± 0.4
TTTTAAAAATCTATATGTACACAATACGTCTATAAA [XGTACX_site5787]	8.62 ± 0.29
TATGAAAATGTTCATACACACATAAAAAAAAAAAAA [CACACA_site3236]	8.51 ± 0.51
TACACATACACATACACACGCATAGAAACATACGAA [CACACA_site2137]	8.62 ± 0.47
AAAAAAAAAAAAAACACACAAACGCTTTTTTTTTTT [CACACA_site686]	8.64 ± 0.38
TACATATTTTTATATACACACAATAATTATTATAAA [CACACA_site1659]	8.43 ± 0.35
TTTTAAATATGCAGATGTACATTATAATGTTTTATT [XGTACX_site2079]	8.85 ± 0.4
TATATTTATTATAACACACACATATATATATTATAT [CACACA_site1061]	8.44 ± 0.26

Sequence	gcPBM binding intensity (ln)
GATATGTACTAATACACACACATATAGATTTATATA [CACACA_site6610]	8.56 ± 0.23
AAATATATGAATAAATGTACGAAATGAATGGATGAA [XGTACX_site7108]	9.11 ± 0.59
TTATAATCTTATATATGTACATATATATATTATTAT [XGTACX_site7780]	8.38 ± 0.32
AAACATGTATTTTATTGTACACATTCATAAATCACA [XGTACX_site1420]	8.76 ± 0.37
TACATGTATGTAATATGTTTTATTTTTTTCATCTCT [XGTACX_negctrl_site79]	8.31 ± 0.4
TTAATTAGAAATCATACACACATATATATATATATA [CACACA_site173]	10.1 ± 0.4
CATTCAAACAAAAAAAGTACTCATCACATAATATAT [XGTACX_site1251]	8.51 ± 0.52
TTTATATTGTTTTATTGTACATATATATTTATACAT [XGTACX_site6821]	8.81 ± 0.4
GCAAAATATTTAAAATAATATATGTGTATATTTTTA [GTGCAC_negctrl_site149]	7.98 ± 0.41
GAAATGTACAAATACGTACACACATATATATATATA [CACACA_site1541]	9.93 ± 0.33
AAAAAAAAAAAAAAACTTACGATTTTAAAAAGATGG [GTGCAC_negctrl_site291]	8.32 ± 0.28
ATATATTTATAATACACATGCAATGATATAATATAT [TGCATGCA_site20]	8.6 ± 0.3
CATATATACATATATACACACATATATATATATATA [CACACA_site645]	10.1 ± 0.27
TATATATATTATATAGTGCATTGAAGAAGGGGATTT	8.635 ± 0.064
GTGTGGTTACAGACACGAACACATTTTTTAAATATT [CACACA_negctrl_site83]	8.65 ± 0.47
GTAAGAAAGAAAGGAAGTACGTAAGAAAGTAAGAAC [XGTACX_site1239]	9.37 ± 0.45
TTTTTTTTTCTGTGAGTGCATGTAATAAAATAAATT [GTGCAC_site9740]	8.8 ± 0.057
CATATTTGTTGACACACACACATATTTATATAAATA [CACACA_site7648]	8.74 ± 0.4
GGGAGGATATTACACAGTACCCAGAAAATCTACGGA [XGTACX_site2551]	8.8 ± 0.43
TTTATATGTTTAAAATGTACATGTGGTAAAAATTTT [XGTACX_site5907]	8.8 ± 0.42
TATTCCTTATTATAATTCTTAAATAAAAAAAAAAAA [TGCATGCA_negctrl_site45]	8.01 ± 0.33
CCCATTATTGTTGGGGGTACAATTTTGAATATATAT [XGTACX_site2227]	9.7 ± 0.49
